Measurements published in the supplement of paper PMC3334620.
The full ranking holds about 33,000 sequences; the median of “E-score (-0.5 to 0.5)” is about -0.041, and the highest 2% start at about 0.37. The list shows a part of the results.

biological target: T1, Ecm22 (UniProt Q05958); assay: PBM E-score (8-mer binding enrichment) (E-score (-0.5 to 0.5)); higher = stronger / more preferred TF binding; most listed sequences are background and not binding sites; details: protein concentration: 200 nM; construct: GST-full length
T1 sequence: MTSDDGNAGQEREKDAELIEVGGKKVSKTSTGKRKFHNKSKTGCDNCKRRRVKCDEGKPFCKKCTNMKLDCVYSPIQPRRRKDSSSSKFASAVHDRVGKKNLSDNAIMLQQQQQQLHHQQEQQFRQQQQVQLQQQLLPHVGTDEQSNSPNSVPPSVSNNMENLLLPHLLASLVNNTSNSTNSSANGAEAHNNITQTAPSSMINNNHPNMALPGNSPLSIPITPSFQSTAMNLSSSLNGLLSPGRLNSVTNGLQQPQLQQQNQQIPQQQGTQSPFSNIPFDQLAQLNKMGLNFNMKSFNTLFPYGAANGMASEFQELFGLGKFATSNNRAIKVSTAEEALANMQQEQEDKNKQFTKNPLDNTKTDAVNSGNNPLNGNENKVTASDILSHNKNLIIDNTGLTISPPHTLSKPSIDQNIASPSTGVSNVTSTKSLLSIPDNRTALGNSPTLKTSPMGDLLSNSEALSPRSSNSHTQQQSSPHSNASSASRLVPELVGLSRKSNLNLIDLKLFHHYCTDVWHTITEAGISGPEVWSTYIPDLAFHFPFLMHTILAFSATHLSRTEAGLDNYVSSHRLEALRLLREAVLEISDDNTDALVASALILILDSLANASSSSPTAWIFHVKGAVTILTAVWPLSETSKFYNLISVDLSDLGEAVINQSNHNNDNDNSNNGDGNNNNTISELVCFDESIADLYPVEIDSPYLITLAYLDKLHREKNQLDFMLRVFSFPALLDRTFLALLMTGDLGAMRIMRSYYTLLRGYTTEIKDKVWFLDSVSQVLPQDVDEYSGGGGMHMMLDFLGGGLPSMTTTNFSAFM
Method in brief: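 Using PURExpress in vitro transcription/translation, GST-tagged yeast transcription factors were made in full-length or DNA-binding-domain form. These were applied at about 100-200 nM to double-stranded universal all-10-mer Agilent arrays, and bound protein was detected with fluorescent anti-GST. Scans were normalised with masliner before the Universal PBM Analysis Suite assigned E-scores to ungapped eight-base words pooled with their reverse complements.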

Sequence | PBM E-score
AGGGGTGC | -0.19
ACGCAGCA | 0.033
GATAAGCA | 0.0947
AGGCACAC | -0.208
CCATTAAA | -0.0951
AGAAGATA | -0.0582
CGTTTATA | 0.426
CTCCGCAA | -0.0477
CACTGGCC | -0.219
CCTCGAGG | -0.114
CTTCCGGC | -0.0914
CGATACTA | 0.216
ATGATTGC | 0.095
AGCTTCGG | -0.00259
TGATGGCA | -0.12
CACTATCG | 0.0969
CCGCATCG | 0.0485
TACGAGAA | 0.462
TCGCGAAA | 0.306
GCTTTTAA | -0.0344
CTAAAATC | -0.174
TGAAATAA | -0.0508

Sequence | PBM E-score
CGCGTGAC | 0.0429
AACAGGAG | -0.19
GTGGTACA | 0.0101
CAACGGGA | 0.155
ACCGCTTG | 0.00183
AGATTTCC | -0.0478
AAGGCAAA | -0.146
ACGTTCTA | 0.0664
CGACATCC | 0.0868
GCCGACTA | 0.123
CTGGTCTA | -0.18
AGTAGAAT | -0.0978
GCCGGAGA | 0.107
CTGCGCTA | -0.137
CCATGACG | -0.00209
GCCTCCAA | -0.263
AGACGAGC | 0.211
CTTTATAC | 0.23
ACAAGTAA | -0.00762
CGCCAGAC | 0.00345
CAGACTCC | -0.2
GAATACCC | 0.154

Sequence | PBM E-score
CCGTCATC | -0.126
ATGATTCA | -0.0797
AAGTTCGT | 0.319
GAGCTGCA | 0.0122
AGATTAGA | -0.14
CGCGCCCC | -0.142
ATGACCTA | 0.0367
ACTAATCT | 0.0304
AGGCTGGA | -0.161
CATCCGCC | -0.187
ACACGATC | 0.0695
GCCCGCCC | -0.0527
GTTAACCA | 0.0331
CACAGTAA | -0.101
GAAAGTGC | -0.364
GAGCGACA | 0.27
CTTTAAGA | 0.0616
GCTGAGCA | -0.0744
ACCGTTCA | 0.296
ATGGGTGG | -0.257
ACGCAGAC | -0.0633
ATGTGACG | -0.0295

Sequence | PBM E-score
GTGCAAGA | 0.0911
ACTCACAT | -0.033
ATTATTCC | 0.123
AAAAGAAC | 0.0234
CTCGATAA | 0.184
CCCCGTCG | 0.115
AGACACAT | -0.158
GCACAGAC | -0.00585
CGAAGGTA | 0.116
GTAGCTGA | -0.0734
ACATTTGG | -0.242
ATAAAGGA | -0.198
AGTCCGGA | -0.036
AGTAGCGA | 0.153
GACCTGTA | 0.12
CCAATAAA | -0.0255
CTGGTTGA | -0.248
GGAAGCTA | -0.108
CGGTATGC | 0.0372
CAGTATGA | -0.185
